Assay [1] concerns the target X-box binding protein 1 (human) (UniProt P17861). As to the kind of experiment: FRET or BRET; direct-binding FRET in 384-well plates; rhodamine-labelled design (acceptor) titrated 0 to 1 uM into 10 nM fluorescein-labelled bZIP (donor); 150 mM KCl, 50 mM potassium phosphate pH 7.4, 0.1% Tween-20, 0.1% BSA; 37 °C.
Assay [2] shares this target. Description: FRET or BRET; direct-binding FRET in 384-well plates; rhodamine-labelled design (acceptor) titrated 0 to 1 uM into 10 nM fluorescein-labelled bZIP (donor); 150 mM KCl, 50 mM potassium phosphate pH 7.4, 0.1% Tween-20, 0.1% BSA; 4 °C.
Assay [3] deals with ATF4 (human) (UniProt P18848). Description: FRET or BRET; direct-binding FRET in 384-well plates; rhodamine-labelled design (acceptor) titrated 0 to 1 uM into 10 nM fluorescein-labelled bZIP (donor); 150 mM KCl, 50 mM potassium phosphate pH 7.4, 0.1% Tween-20, 0.1% BSA; 23 °C.
UniProt P18848, sequence (P18848 whole entry): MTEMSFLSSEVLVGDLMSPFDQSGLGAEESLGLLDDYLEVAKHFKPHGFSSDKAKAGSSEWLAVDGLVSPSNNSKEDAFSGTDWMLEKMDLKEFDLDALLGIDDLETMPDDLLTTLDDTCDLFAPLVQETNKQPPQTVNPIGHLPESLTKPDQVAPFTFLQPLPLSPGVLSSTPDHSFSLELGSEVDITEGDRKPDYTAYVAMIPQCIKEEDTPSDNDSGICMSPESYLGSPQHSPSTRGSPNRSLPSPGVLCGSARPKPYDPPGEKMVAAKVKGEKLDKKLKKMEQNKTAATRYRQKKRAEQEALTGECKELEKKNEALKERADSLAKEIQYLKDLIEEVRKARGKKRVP
Assay [4] deals with ATF4 (human) (UniProt P18848). As to the kind of experiment: FRET or BRET; direct-binding FRET in 384-well plates; rhodamine-labelled design (acceptor) titrated 0 to 1 uM into 10 nM fluorescein-labelled bZIP (donor); 150 mM KCl, 50 mM potassium phosphate pH 7.4, 0.1% Tween-20, 0.1% BSA; 37 °C.
The target in assay [5] is ATF4 (human) (UniProt P18848). Description: FRET or BRET; direct-binding FRET in 384-well plates; rhodamine-labelled design (acceptor) titrated 0 to 1 uM into 10 nM fluorescein-labelled bZIP (donor); 150 mM KCl, 50 mM potassium phosphate pH 7.4, 0.1% Tween-20, 0.1% BSA; 4 °C.
For assay [6], the target named is ATF2 (human) (UniProt P15336). Description: FRET or BRET; direct-binding FRET in 384-well plates; rhodamine-labelled design (acceptor) titrated 0 to 1 uM into 10 nM fluorescein-labelled bZIP (donor); 150 mM KCl, 50 mM potassium phosphate pH 7.4, 0.1% Tween-20, 0.1% BSA; 23 °C.
UniProt P15336, sequence (P15336 whole entry): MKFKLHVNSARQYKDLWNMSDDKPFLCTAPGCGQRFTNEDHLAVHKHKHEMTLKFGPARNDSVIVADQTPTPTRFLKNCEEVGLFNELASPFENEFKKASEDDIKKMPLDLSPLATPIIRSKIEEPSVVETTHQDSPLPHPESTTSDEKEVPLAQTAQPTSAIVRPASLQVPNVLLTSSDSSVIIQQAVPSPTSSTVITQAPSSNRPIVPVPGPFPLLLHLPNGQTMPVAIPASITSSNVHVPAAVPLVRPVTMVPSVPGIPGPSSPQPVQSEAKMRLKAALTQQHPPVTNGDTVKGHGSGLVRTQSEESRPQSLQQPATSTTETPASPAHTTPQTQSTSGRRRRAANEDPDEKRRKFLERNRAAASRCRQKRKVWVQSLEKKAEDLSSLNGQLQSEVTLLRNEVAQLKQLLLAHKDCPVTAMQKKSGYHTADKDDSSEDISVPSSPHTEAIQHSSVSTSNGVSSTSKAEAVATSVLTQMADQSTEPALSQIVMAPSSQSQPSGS
Assay [7] concerns the target ATF2 (human) (UniProt P15336). As to the kind of experiment: FRET or BRET; direct-binding FRET in 384-well plates; rhodamine-labelled design (acceptor) titrated 0 to 1 uM into 10 nM fluorescein-labelled bZIP (donor); 150 mM KCl, 50 mM potassium phosphate pH 7.4, 0.1% Tween-20, 0.1% BSA; 37 °C.
For assay [8], the target named is ATF2 (human) (UniProt P15336). Description: FRET or BRET; direct-binding FRET in 384-well plates; rhodamine-labelled design (acceptor) titrated 0 to 1 uM into 10 nM fluorescein-labelled bZIP (donor); 150 mM KCl, 50 mM potassium phosphate pH 7.4, 0.1% Tween-20, 0.1% BSA; 4 °C.
The target of assay [9] is ATF5 (human) (UniProt Q9Y2D1). Description: FRET or BRET; direct-binding FRET in 384-well plates; rhodamine-labelled design (acceptor) titrated 0 to 1 uM into 10 nM fluorescein-labelled bZIP (donor); 150 mM KCl, 50 mM potassium phosphate pH 7.4, 0.1% Tween-20, 0.1% BSA; 23 °C.
UniProt Q9Y2D1, sequence (Q9Y2D1 whole entry): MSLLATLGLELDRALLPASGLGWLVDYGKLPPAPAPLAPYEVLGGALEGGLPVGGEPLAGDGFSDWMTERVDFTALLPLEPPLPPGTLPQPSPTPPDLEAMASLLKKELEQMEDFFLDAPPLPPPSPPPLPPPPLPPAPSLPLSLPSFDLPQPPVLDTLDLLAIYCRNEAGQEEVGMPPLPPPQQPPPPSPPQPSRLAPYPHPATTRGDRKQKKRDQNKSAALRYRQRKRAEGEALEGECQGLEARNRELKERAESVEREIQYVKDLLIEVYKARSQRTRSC
For assay [10], the target named is ATF5 (human) (UniProt Q9Y2D1). As to the kind of experiment: FRET or BRET; direct-binding FRET in 384-well plates; rhodamine-labelled design (acceptor) titrated 0 to 1 uM into 10 nM fluorescein-labelled bZIP (donor); 150 mM KCl, 50 mM potassium phosphate pH 7.4, 0.1% Tween-20, 0.1% BSA; 37 °C.
The next assay deals with ATF6B (Homo sapiens, UniProt Q99941). Description: FRET or BRET; direct-binding FRET in 384-well plates; rhodamine-labelled design (acceptor) titrated 0 to 1 uM into 10 nM fluorescein-labelled bZIP (donor); 150 mM KCl, 50 mM potassium phosphate pH 7.4, 0.1% Tween-20, 0.1% BSA; 4 °C.
UniProt Q99941, sequence (Q99941 whole entry): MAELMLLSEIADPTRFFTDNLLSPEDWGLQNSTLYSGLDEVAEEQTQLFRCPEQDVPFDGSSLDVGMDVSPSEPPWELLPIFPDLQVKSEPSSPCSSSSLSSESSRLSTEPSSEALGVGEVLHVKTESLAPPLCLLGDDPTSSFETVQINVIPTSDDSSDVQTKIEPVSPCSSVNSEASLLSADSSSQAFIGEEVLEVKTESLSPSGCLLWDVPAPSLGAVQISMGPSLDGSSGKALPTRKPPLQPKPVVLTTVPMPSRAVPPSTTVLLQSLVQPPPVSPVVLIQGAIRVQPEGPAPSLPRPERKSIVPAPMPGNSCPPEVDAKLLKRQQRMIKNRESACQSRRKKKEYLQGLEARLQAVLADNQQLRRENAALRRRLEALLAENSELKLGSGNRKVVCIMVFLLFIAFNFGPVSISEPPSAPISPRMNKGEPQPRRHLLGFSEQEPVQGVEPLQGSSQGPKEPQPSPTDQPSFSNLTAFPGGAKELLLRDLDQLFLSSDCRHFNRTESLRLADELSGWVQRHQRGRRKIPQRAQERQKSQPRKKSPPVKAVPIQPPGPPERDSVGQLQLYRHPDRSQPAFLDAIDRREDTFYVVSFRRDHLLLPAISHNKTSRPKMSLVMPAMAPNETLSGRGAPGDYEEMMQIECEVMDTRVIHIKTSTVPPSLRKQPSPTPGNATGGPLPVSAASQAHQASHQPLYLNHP
Assay [11] has as its target T1, JUN (Homo sapiens, UniProt P05412). As to the kind of experiment: FRET or BRET; direct-binding FRET in 384-well plates; rhodamine-labelled design (acceptor) titrated 0 to 1 uM into 10 nM fluorescein-labelled bZIP (donor); 150 mM KCl, 50 mM potassium phosphate pH 7.4, 0.1% Tween-20, 0.1% BSA; 23 °C.
T1 sequence (P05412 whole entry): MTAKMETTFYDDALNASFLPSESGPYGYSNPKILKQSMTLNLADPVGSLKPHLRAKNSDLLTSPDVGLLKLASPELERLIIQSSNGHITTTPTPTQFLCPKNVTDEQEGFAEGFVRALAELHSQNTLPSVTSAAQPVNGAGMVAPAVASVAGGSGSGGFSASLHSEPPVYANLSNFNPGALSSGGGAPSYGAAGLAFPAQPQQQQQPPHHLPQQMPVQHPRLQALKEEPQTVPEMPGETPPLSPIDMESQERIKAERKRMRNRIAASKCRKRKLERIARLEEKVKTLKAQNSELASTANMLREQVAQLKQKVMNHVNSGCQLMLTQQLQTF
Assay [12] addresses T1, JUN. As to the kind of experiment: FRET or BRET; direct-binding FRET in 384-well plates; rhodamine-labelled design (acceptor) titrated 0 to 1 uM into 10 nM fluorescein-labelled bZIP (donor); 150 mM KCl, 50 mM potassium phosphate pH 7.4, 0.1% Tween-20, 0.1% BSA; 37 °C.
In assay [13] the target is T1, JUN. As to the kind of experiment: FRET or BRET; direct-binding FRET in 384-well plates; rhodamine-labelled design (acceptor) titrated 0 to 1 uM into 10 nM fluorescein-labelled bZIP (donor); 150 mM KCl, 50 mM potassium phosphate pH 7.4, 0.1% Tween-20, 0.1% BSA; 4 °C.
Where [14] appears, read: mean of four replicate measurements.

Some entries of the source have several records that differ or are many. The list is limited to them. An entry can have further records. For some of these results: The values listed for one entry seem to repeat one measurement on other runs, samples or individuals. For some of these results: Results that share an entry seem to repeat one measurement; a mean can stand among them. Some values that stand alone complete this part of the results. Where no end group is shown, it is not given here.

UniProt P17861, sequence (P17861 whole entry): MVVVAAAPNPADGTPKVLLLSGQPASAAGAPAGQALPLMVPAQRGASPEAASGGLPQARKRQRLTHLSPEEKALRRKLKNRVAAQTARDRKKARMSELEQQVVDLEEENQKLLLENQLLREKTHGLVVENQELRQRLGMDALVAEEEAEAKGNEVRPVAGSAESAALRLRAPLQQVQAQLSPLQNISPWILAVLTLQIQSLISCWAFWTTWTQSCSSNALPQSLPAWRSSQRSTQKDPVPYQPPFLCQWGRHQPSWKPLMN

B1: XBP1-d1 labeled at the C-terminus (designed binder)
chain: GESKEYKKGSGSEREAQLENRVAHLKEKNQELKAQNLHLKEALSEAQNRNQELKNDAGC
modifications: also: Cys59: Rhodamine Red C2-maleimide or fluorescein-5-maleimide, by assay
Turning to B1, the Kd in [1] was 208, 227, 171, 80.2 nM; in assay [2] (individual replicate measurement), 2.3, 2, 1.7, 1 nM; in assay [2] (mean of replicate measurements) it was 1.8 nM.

B2: ATF4-d1 labeled at the N-terminus (designed binder)
chain: GESKEYKKGSGSC(Rhodamine Red C2‑maleimide)GNQIKTLRTRLSKLRKDNLQLEKDIANLERKAKDLRAEKEQLEYEL
As for B2, the equilibrium dissociation constant (Kd) with ATF4 (human) [3] (individual replicate Kd) was 490, 112, 103, 22.4 nM; in the assay with ATF4 (human) [3] (summary Kd across replicates), 235 nM; in the assay with ATF4 (human) [4] (individual replicate), 1 µM, 635 nM, 328 nM; in the assay with ATF4 (human) [4] (mean of replicates) it was 741 nM; with ATF4 (human) [5] it was 1 µM and 71.5 nM.

B3: JUN-d1 labeled at the C-terminus (designed binder)
chain: GESKEYKKGSGSSIAATLEKEEANLEKMNKKLAAEIESLLKEKDKLESVLNYHEGC
modifications: also: Cys56: Rhodamine Red C2-maleimide or fluorescein-5-maleimide, by assay
Take B3: the Kd was 52.1 nM, 54.3 nM, 44.3 nM with ATF4 (human) [3] (individual replicate fit); 50 nM with ATF4 (human) [3] (mean of replicate fits); 108 nM with ATF2 (human) [6] (mean of replicates); 110, 104, 107, 112 nM with ATF2 (human) [6] (single replicate); 681 nM, 760 nM, 708 nM with ATF2 (human) [7]; 3.7 nM, 3.3 nM, 3.6 nM with ATF4 (human) [5] (individual measurement, 4 °C). Besides, the Kd with ATF4 (human) [5] (mean value, 4 °C) was 3.5 nM; in the assay with ATF2 (human) [8] (individual replicate fit), 12.1 nM, 14 nM, 9.7 nM; with ATF2 (human) [8] (mean of replicate fits), 12 nM.

B4: ATF5-d1 labeled at the C-terminus (designed binder)
chain: GESKEYKKGSGSKRIAYLRQRIAELRNENHVLESRIQRMEKEKDALQQDRDHLEYELGC(Rhodamine Red C2‑maleimide)
modifications: not fully specified
Take B4: the Kd is 51.6, 49.2, 31.6, 9.3 nM with ATF5 (human) [9]; 44.1 nM with ATF5 (human) [9] (summary value across replicates); 2.8 µM, 1.51 µM, 729 nM, 129 nM in the assay with ATF5 (human) [10]; 433 nM in the assay with ATF6B (mean of replicates); 448 nM, 438 nM, 412 nM with ATF6B (single replicate).

B5: JUN-d1 labeled at the N-terminus (designed binder)
chain: GESKEYKKGSGSC(Rhodamine Red C2‑maleimide)GSIAATLEKEEANLEKMNKKLAAEIESLLKEKDKLESVLNYHE
B5: the Kd with JUN [11] (setting [14]) is 5.2 nM; in the assay with JUN [11] (single replicate measurement) it was 4.7, 7.3, 6, 2.8 nM; with JUN [12] (setting [14]), 41 nM; in the assay with JUN [12] (single replicate measurement) it was 48.1, 50.6, 35.8, 29.5 nM; in the assay with JUN [13] (individual replicate) it was 1.5, 1.3, 2.3, 1.1 nM; with JUN [13] (mean of replicates) it was 1.6 nM.

Source of the values: PMC4335062, “Data-Driven Prediction and Design of bZIP Coiled-Coil Interactions” (PLoS Computational Biology, 2015).
